Source: patent publication US6974794B1, “Hemoglobin-antioxidant conjugates” (Hemosol LP, priority 1999, dated 2005)

B1: Hb-Trolox A: hemoglobin-Trolox conjugate prepared as described for reaction #7 in Table 1 (conjugate, UniProt P69905 2-142; P68871 2-147, looked up)
Hemoglobin subunit alpha: VLSPADKTNVKAAWGKVGAHAGEYGAEALERMFLSFPTTKTYFPHFDLSHGSAQVKGHGKKVADALTNAVAHVDDMPNALSALSDLHAHKLRVDPVNFKLLSHCLLVTLAAHLPAEFTPAVHASLDKFLASVSTVLTSKYR
Hemoglobin subunit beta: VHLTPEEKSAVTALWGKVNVDEVGGEALGRLLVVYPWTQRFFESFGDLSTPDAVMGNPKVKAHGKKVLGAFSDGLAHLDNLKGTFATLSELHCDKLHVDPENFRLLGNVLVCVLAHHFGKEFTPPVQAAYQKVVAGVANALAHKYH
modifications: Trolox conjugate
B2: Hb-Trolox B: hemoglobin-Trolox conjugate prepared as described for reaction #6 in Table 1 (conjugate, UniProt P69905 2-142; P68871 2-147, looked up)
Hemoglobin subunit alpha: VLSPADKTNVKAAWGKVGAHAGEYGAEALERMFLSFPTTKTYFPHFDLSHGSAQVKGHGKKVADALTNAVAHVDDMPNALSALSDLHAHKLRVDPVNFKLLSHCLLVTLAAHLPAEFTPAVHASLDKFLASVSTVLTSKYR
Hemoglobin subunit beta: VHLTPEEKSAVTALWGKVNVDEVGGEALGRLLVVYPWTQRFFESFGDLSTPDAVMGNPKVKAHGKKVLGAFSDGLAHLDNLKGTFATLSELHCDKLHVDPENFRLLGNVLVCVLAHHFGKEFTPPVQAAYQKVVAGVANALAHKYH
modifications: Trolox conjugate

Test system: erythrocytes
Test: Hemolysis of erythrocytes mediated by peroxyl radicals (AAPH); protection of RBCs against lysis
Type: cell-based
Conditions: Table 4; hemoglobin 0.20 mM (12-13 mg/ml) in RBC assay suspension, under CO, 37° C.; bound Trolox 0.32 mM (A), 0.45 mM (B); lower AUC = greater protection
Method: Blood was collected into heparinized tubes and erythrocytes were separated by centrifugation and washed 3 times with 10 volumes of PBS, pH 7.4. During the last washing, erythrocytes were centrifuged at 1000×g for 10 minutes to obtain a consistently packed cell preparation. The assay for hemolysis mediated by peroxyl radicals was conducted by a modified method of Miki et al.,(M. Miki, H. Tamai, M. Mino, Y. Yamamoto and E. Niki., Arch. Biochem. Biophys. 258:373-380 (1987)). Equal volumes of a 30% suspension of fresh erythrocytes in PBS pH 7.4, test sample, and 300 mM 2,2;-azo-bis(2-amidinopropane dihydrochloride) (AAPH, a radical generator) were combined in order. […] As a measure of Hb released due to RBC lysis, the absorbances of supernatants were measured at 540 nm after conversion of all Hb to CN-metHb according to the method of Tentori (Meth. Enzymology 75:707 (1981)). […]
The results for two products are presented graphically in FIG. 1, a plot of relative RBC lysis against time for the various products. Products analyzed were prepared as described for reaction #6 (Hb-Trolox B) and reaction #7 (Hb-Trolox A) in Table 1 of Example 1. […] Relative protection was also determined by comparison of areas under the curves (AUC) obtained by plotting RBC lysate absorbance versus time. AUC is determined by the time of onset, rate, and overall extend of RBC lysis. […]

Molecule	AUC relative to AAPH control (%)
B1	10
B2	4
